Measured values taken from PubChem BioAssay AID652104 (National Center for Advancing Translational Sciences (NCATS), 2013).
The campaign covered roughly 410,000 compounds. About 7,200 (1.8%) were called active. Inconclusive means that the source gave no clear call. Such entries were picked first, then a sample of the others. Calls follow the shape of the dose curve; as a rule, active = well fitted activation curve with a large enough effect; inconclusive = small, poorly fitted or top-dose-only effect, or another doubt; inactive = no such curve, though single readings can be large or run the other way. Potencies of inconclusive entries are left out as doubtful fits.
Potency is read from the fitted curve at half-maximal effect; tags tell the direction and shape of the fitted curve.

Test: qHTS of TDP-43 Inhibitors; also: nearly all actives have a fitted effect of over 50% in size; as to growth rescue (activation): % of control where 0% means no effect
Details: TDP-43 expressing yeast growth rescue, BacTiter-Glo, 24 h; growth rescue (activation): at 46.1 µM (top of the series) unless noted
How it was run: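 Yeast cells expressing TDP-43 under galactose induction are exposed to compounds for 24 hr at 30 deg C. BacTiter-Glo luminescence measures growth, so protective compounds score as activators.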
For `Cc1cccc(NC(=S)/N=C(\N)Nc2nc(C)c3ccccc3n2)c1`, the Potency was active: 20 µM.
In the case of `COc1ccc2c(c1)Cc1sc(NC(C)=O)nc1-2`, the Potency was inconclusive [activator, single point].
In the case of `O=C(COC(=O)c1ccc([N+](=O)[O-])s1)NNC(=O)c1ccccc1`, the Potency was inconclusive [activator, partial curve].
In the case of `CCN(CC)C(=O)Cn1c(=O)cc(C)c2c(C)nn(-c3ccc(C)cc3)c21`, the Potency was “inactive”.
In the case of `Cc1c(C(=O)Nc2ccc3nc(N4CCOCC4)sc3c2)oc2ccccc12`, the Potency was inconclusive [activator, single point].
For `CN(C)c1ccnc(-n2cccc2/C=N/OCc2ccc(F)cc2Cl)c1C#N`, the Potency was inconclusive [activator, single point].
With `O=c1[nH]c(Nc2ccccc2Cl)cc2ccccc12` the Potency was inconclusive [activator, partial curve].
For `CC(=O)N1N=C(c2ccc(C)c([N+](=O)[O-])c2)OC1(C)C`, the Potency was inconclusive [activator, partial curve].
With `COc1ccc(C)cc1NC(=O)CN1CCN(S(=O)(=O)c2ccc(F)cc2)CC1` the Potency was “inactive”.
For `N/C(=N\NC(=O)c1cccs1)c1cc2cc(Cl)ccc2oc1=O`, the Potency was “inactive”.
With `C/C(=C\C(=O)C(F)(F)F)Nc1ccc(C(F)(F)F)cc1` the Potency was “inactive”.
For `COc1ccccc1CNS(=O)(=O)c1ccc2c(c1)NC(=O)CC(=O)N2`, the Potency was “inactive”.
In the case of `CCc1nnc2n1N=C(c1ccc(Cl)cc1Cl)CS2`, the Potency was inconclusive [activator, partial curve].
In the case of `O=C(OCc1nc2ccsc2c(=O)[nH]1)c1ccc(Cl)nc1`, the growth rescue (activation) was inconclusive: 30.2% [activator].
With `CCOC(=O)c1oc2ccc(S(=O)(=O)n3nc(-c4ccc(Br)cc4)cc3N)cc2c1C` the Potency was “inactive”.
For `COc1ccc(Nc2nc(N)c3cc(OC)c(OC)cc3n2)cc1`, the Potency was “inactive”.
With `CC(=O)c1ccc(OCc2cc(C(=O)N3CCCCCCC3)no2)cc1` the Potency was “inactive”.
With `Cc1ccc(NC(=S)NNC(=O)CSc2nc3ccccc3c(=O)n2-c2ccc(C)cc2)cc1` the Potency was inconclusive [activator, partial curve].
In the case of `O=[N+]([O-])c1cccc(-c2nc(-c3ccncc3)no2)c1`, the Potency was inconclusive [activator, full curve, poor fit].
In the case of `COc1cccc(N2CCN(C(=O)c3cc4c(s3)CCCCC4)CC2)c1`, the Potency was inconclusive [activator, single point].
For `O=C(CCCc1ccccc1)NCCc1ccc(F)cc1`, the Potency was inconclusive [activator, partial curve].
With `O=C(COc1ccccc1)Nc1nnc(-c2ccccc2)o1` the Potency was inconclusive [activator, partial curve].
In the case of `Cc1c(C(=O)Oc2cccc3cccnc23)cccc1[N+](=O)[O-]`, the growth rescue (activation) was inconclusive: -75.5% [activator].
For `CSc1nc(N)c(C(=O)NC2CCCCC2)s1`, the Potency was inconclusive [activator, partial curve].
For `CCOC(=O)c1nnn(-c2nonc2N)c1CSc1ccccc1`, the Potency was inconclusive [activator, single point].
In the case of `CC(C)(C)C1=CC(=O)C(N2CCOCC2)=CC1=O`, the Potency was inconclusive [activator, partial curve].
With `Cc1ccc(-c2nnc(SCC(=O)N/N=C/c3cccs3)n2-c2ccc(C)cc2)cc1` the Potency was active: 22.4 µM.
With `COc1ccc(NCC(=O)n2c(C)c(C)c3ccccc32)cc1` the Potency was inconclusive [activator, partial curve].
In the case of `COCCCNC(=O)c1ccc2c(c1)N(Cc1ccccc1)C(=O)c1ccccc1S2`, the Potency was inconclusive [activator, partial curve].
In the case of `CCN(CC)c1ccc2c(C)c(-c3ccc(N)cc3)c(=O)oc2c1`, the Potency was inconclusive [activator, partial curve, poor fit].
For `Cc1nc2ccc(NC(=S)N3CCCC3)cc2nc1C`, the Potency was “inactive”.
In the case of `CN(C)/C=C(\C#N)c1nc2ccccc2[nH]1`, the Potency was “inactive”.
With `CCN(Cc1ccccc1)Cc1c(O)ccc2c(=O)c(-c3ccc(Cl)cc3Cl)coc12` the Potency was “inactive”.
With `Cc1ccc(/C=N/Nc2ncc(Cl)cc2Cl)s1` the Potency was “inactive”.
With `CC(NC(=O)c1ccccc1)C(=O)NC1CCCc2ccccc21` (stereo unspecified) the Potency was inconclusive [activator, partial curve].
In the case of `COc1cccc(Cn2c(CNC(=O)c3cc([N+](=O)[O-])ccc3Cl)nc3cccnc32)c1`, the Potency was inconclusive [activator, partial curve].
In the case of `COC(=O)[C@@]1(Cc2ccc(F)cc2)[C@H]2c3cc(C(=O)N(C)C)n(Cc4ccc(C)c(F)c4F)c3C[C@H]2CN1C(=O)c1ccccc1`, the Potency was inconclusive [activator, partial curve, poor fit].
With `CCCCNC(=O)c1ccccc1NC(=O)CCSc1ccccc1` the Potency was inconclusive [activator, single point].
In the case of `CC(=O)n1c(-c2ccccc2)c(-c2ccccc2)n(C)c1=O`, the Potency was active: 12.6 µM.
With `CN(C)C(=O)COC(=O)c1ccccc1Nc1ccc(SC(F)F)cc1` the Potency was inconclusive [activator, single point].
In the case of `Cc1cccc(C)c1-n1cccc1/C=C1/C(=N)N2C(=NC1=O)SN=C2S(C)(=O)=O`, the Potency was inconclusive [activator, partial curve].
For `CNC(=O)/C(C#N)=C/c1c(N(Cc2ccccc2)Cc2ccccc2)nc2c(C)cccn2c1=O`, the Potency was inconclusive [activator, partial curve, poor fit].
With `COc1ccc(CNc2ncnc3onc(-c4ccc(F)cc4)c23)cc1` the Potency was inconclusive [activator, single point].
For `CN(Cc1ccccc1)C(=S)NC(=O)c1cccs1`, the Potency was inconclusive [activator, single point].
In the case of `CC(C)CC(=O)Nc1sc2c(c1C(=O)O)CCCCC2`, the Potency was active: 11.2 µM.
For `O=c1n(Cc2ccc(Cl)cc2)c2sc3c(c2c2ncnn12)CCCC3`, the Potency was inconclusive [activator, full curve, poor fit].
For `CCOc1ccccc1NC(=O)c1ccc(F)c(S(=O)(=O)NCc2ccc3c(c2)OCO3)c1`, the Potency was inconclusive [activator, single point].
With `COc1cccc(C(=O)Nc2ccccc2OC(F)(F)F)c1` the Potency was inconclusive [activator, single point].
In the case of `COc1ccccc1N1CCN(CC(=O)c2ccc3ccn(C(C)=O)c3c2)CC1`, the Potency was inconclusive [activator, partial curve].
For `Cc1ccn2c(=O)c(C(=O)NCCN3CCOCC3)c(O)nc2c1`, the Potency was “inactive”.
For `O=C(c1cccc(Cl)c1)N1CCCc2ccccc21`, the Potency was inconclusive [activator, partial curve].
For `CCCOc1ccc(C(=O)Nc2ccc(S(=O)(=O)N3C[C@@H]4C[C@@H](C3)c3cccc(=O)n3C4)cc2)cc1`, the Potency was inconclusive [activator, full curve, poor fit].
For `O=C1c2ccccc2N2C(=O)c3ccccc3[C@H]2N1c1ccccc1`, the Potency was active: 20 µM.
In the case of `COc1ccc(OCc2nnc(SCC(=O)c3ccccc3)o2)cc1`, the Potency was inconclusive [activator, single point].
With `Fc1ccc(Nc2nc3ccccc3s2)cc1` the Potency was inconclusive [activator, partial curve].
For `COc1ccc2c(CC(=O)OCC(=O)Nc3cccc(C)c3)coc2c1`, the Potency was inconclusive [activator, partial curve].
In the case of `COc1ccccc1-c1cnc(C(O)c2ccc(C)c(F)c2)[nH]1` (stereo unspecified), the Potency was inconclusive [activator, single point].
With `CC(Oc1ccccc1)C(=O)Nc1nnc2n1CCS2` (stereo unspecified) the Potency was “inactive”.
In the case of `Cc1ccc(O)c(CNc2ccccn2)c1`, the Potency was inconclusive [activator, single point].
With `C/C(=N\NC(=O)c1nn(C)c(C)c1Br)c1cccc(NC(=O)c2ccc(F)cc2)c1` the Potency was inconclusive [activator, full curve, poor fit].
For `O=C(Nc1ccc2c(c1)[nH]c(=O)c1ccccc12)C(F)(F)F`, the Potency was “inactive”.
With `Cc1nn(-c2ccccc2)c(Cl)c1/C=N/O` the Potency was inconclusive [activator, partial curve].
For `CN(C(=O)CCc1ccccc1F)C1CCCN(Cc2ccccc2F)C1` (stereo unspecified), the Potency was active: 20 µM.
In the case of `CCCN(Cc1cc2cc(C)ccc2[nH]c1=O)C(=O)c1ccccn1`, the Potency was inconclusive [activator, single point].
With `CCN1CC=C2C(C#N)=C(N)C(C#N)(C#N)[C@H](c3ccoc3)[C@H]2C1` the Potency was inconclusive [activator, single point].
With `COc1cccc(C2C(C(=O)c3sc(C)nc3C)=C(O)C(=O)N2CCN2CCOCC2)c1OC` (stereo unspecified) the Potency was “inactive”.
For `CCOc1ccc(NC(=O)CSc2ncc3c(n2)-c2ccccc2N(Cc2ccccc2C)S3(=O)=O)cc1`, the Potency was “inactive”.
In the case of `O=C1CC(c2ccc(O)cc2)Oc2ccccc21` (stereo unspecified), the Potency was inconclusive [activator, single point].
For `COC(=O)c1ccc(COc2ccc(C(C)(C)C)cc2)o1`, the Potency was inconclusive [activator, partial curve].
With `CCc1ccccc1N1CC(c2nc3ccccc3n2CCCCOc2ccccc2)CC1=O` (stereo unspecified) the Potency was “inactive”.
For `CN(C)CCNC(=O)c1cccc2[nH]c(-c3ccncc3)nc12`, the Potency was inconclusive [activator, partial curve].
